{
  "source": "PubChem BioAssay AID1347073",
  "about": "(National Center for Advancing Translational Sciences (NCATS), 2019)",
  "note": "Hit rate of the full screen: of about 45,000 compounds, about 200 (0.44%) were called active. Inconclusive results (about 7%) are left out. Calls come from the whole dose curve; as a rule, active = well fitted activation curve with a large enough effect; inconclusive = small, poorly fitted or top-dose-only effect; inactive = no such curve, though single readings can be large or run the other way. Some of the results follow. Peptide text beside a SMILES is read from it. * marks the point of attachment. Boc = CC(C)(C)OC(=O)*",
  "data": [
    {"assay": "qHTS of TDP-43 Inhibitors: NCGC Sytravon Library Screen; note: 0% is about no effect; nearly all actives have a fitted effect of over 55% in size", "conditions": "yeast TDP-43 toxicity rescue, BacTiter-Glo growth, 24 h; series mostly up to 46.1 µM; growth rescue (activation): at the top concentration", "in_short": "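TDP-43-expressing yeast, pregrown in raffinose, seeded at OD600 0.02 in galactose medium with compound for 24 hr at 30 deg C. Growth read by BacTiter-Glo luminescence, so rescue of toxicity appears as activation.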", "values": [
      {"molecule": "O=C(NCc1cccs1)c1ccc([N+](=O)[O-])cc1", "growth rescue (activation)": "inactive: 7.63%"},
      {"molecule": "CC(=O)NC1C(=O)N(CCN2CCOCC2)c2ccc(Cl)cc21", "note": "(configuration not stated)", "growth rescue (activation)": "inactive: -16.5%"},
      {"molecule": "Cc1ccc(NC(=O)C2CC(O)CN2C(=O)Oc2ccccc2)c(C)c1", "note": "(configuration not stated)", "growth rescue (activation)": "inactive: -4.09%"},
      {"molecule": "COc1ccccc1NS(=O)(=O)c1cccc(NC(=O)Nc2ccc(Cl)cc2)c1", "growth rescue (activation)": "inactive: 2.23%"},
      {"molecule": "COc1ccc(S(=O)(=O)NCCc2ccccn2)cc1", "growth rescue (activation)": "inactive: 2.55%"},
      {"molecule": "COc1ccc(N(CC(=O)N2CCN(c3ccccc3F)CC2)S(=O)(=O)c2c(C)n[nH]c2C)cc1", "growth rescue (activation)": "inactive: -7%"},
      {"molecule": "CC(C)NC(=O)C1(C)CCN1C/C=C/c1ccccc1", "note": "(configuration not stated)", "growth rescue (activation)": "inactive: -0.999%"},
      {"molecule": "COc1ccc(C(CCNCc2ccc(N(C)C)cc2)c2ccccc2)cc1", "note": "(configuration not stated)", "growth rescue (activation)": "inactive: 4.16%"},
      {"molecule": "CS(=O)(=O)N(Cc1ccc(Cl)cc1)c1ccc(C(=O)NCC2CCCO2)cc1", "note": "(configuration not stated)", "growth rescue (activation)": "inactive: -4.54%"},
      {"molecule": "CC1CC(=O)NN1C(=O)c1ccccc1", "note": "(configuration not stated)", "growth rescue (activation)": "inactive: -16.7%"},
      {"molecule": "CC(C)(C)CN1CCNC(=O)C1CC(=O)N1CCOc2ccccc2C1", "note": "(configuration not stated)", "growth rescue (activation)": "inactive: -20.3%"},
      {"molecule": "Nc1cc(S(=O)(=O)N2CCCCC2)ccc1Oc1ccccc1", "growth rescue (activation)": "inactive: 14.7%"},
      {"molecule": "O=C(COc1ccccc1F)Nc1cc(S(=O)(=O)N2CCOCC2)ccc1N1CCOCC1", "growth rescue (activation)": "inactive: 8.42%"},
      {"molecule": "O=C(Nc1nc(-c2cccc([N+](=O)[O-])c2)cs1)c1cccc([N+](=O)[O-])c1C(=O)O", "growth rescue (activation)": "inactive: -6.35%"},
      {"molecule": "O=C(COC(=O)c1cccc(S(=O)(=O)NCc2ccccc2)c1)NC1CC1", "growth rescue (activation)": "inactive: 4.54%"},
      {"molecule": "COc1ccc(C)cc1S(=O)(=O)NC1CCCCC1C", "note": "(configuration not stated)", "growth rescue (activation)": "inactive: 17.3%"},
      {"molecule": "COc1ccc(Nc2ccc(N3C(=O)CC(C)C3=O)cc2[N+](=O)[O-])cc1OC", "note": "(configuration not stated)", "growth rescue (activation)": "inactive: 7.17%"},
      {"molecule": "C=CCOc1ccccc1CNc1cccc(F)c1", "growth rescue (activation)": "inactive: 11.1%"},
      {"molecule": "CCOc1cc(/C=N/Nc2nc(-c3cccs3)c(NC(C)=O)s2)ccc1O", "growth rescue (activation)": "inactive: -9.52%"},
      {"molecule": "CC(=C/c1ccco1)/C=N/NC(=O)Cc1cccn1C", "growth rescue (activation)": "inactive: 17.2%"},
      {"molecule": "O=C(NCC(c1ccc(F)cc1)N1CCOCC1)c1ccccc1F", "note": "(configuration not stated)", "growth rescue (activation)": "inactive: 27.1%"},
      {"molecule": "Cc1cc(C)n(-c2nc(NCCN(C)C)c3c4c(sc3n2)COC(C)(C)C4)n1", "growth rescue (activation)": "inactive: -16.5%"},
      {"molecule": "CCC(C)(C)C1CCc2[nH]nc(C(=O)N/N=C(\\C)c3ccco3)c2C1", "note": "(configuration not stated)", "growth rescue (activation)": "inactive: -0.206%"},
      {"molecule": "CN1CCC(=NNC(=O)C(=O)NC2CCCC2)CC1", "growth rescue (activation)": "inactive: 33.9%"},
      {"molecule": "CSc1cc(-c2ccccc2)n(C)c(=O)c1C#N", "growth rescue (activation)": "inactive: 20.1%"},
      {"molecule": "CCOc1ccc(-n2cc(C(=O)NCc3ccco3)c3cc(OC)c(OC)cc3c2=O)cc1", "growth rescue (activation)": "inactive: 27.1%"},
      {"molecule": "CCC(C)C(NC(=O)OC(C)(C)C)C(=O)NC(CC(C)C)C(N)=O", "note": "(stereo not drawn) (Boc-Ile-Leu-NH2; configuration not given here)", "growth rescue (activation)": "inactive: -8.71%"},
      {"molecule": "CCCCOc1ccc(-c2c(C(=O)Nc3ccccc3)c(C)[nH]c(=S)c2C#N)cc1", "growth rescue (activation)": "inactive: 2.75%"},
      {"molecule": "COc1cc(OC)cc(C(=O)Nc2ccc3oc(-c4cccc5c(Br)cccc45)nc3c2)c1", "growth rescue (activation)": "inactive: 5.02%"},
      {"molecule": "Cc1nc(C)n(CC(C)C(=O)N2CCN(S(=O)(=O)c3ccc(Cl)cc3)CC2)n1", "note": "(configuration not stated)", "growth rescue (activation)": "inactive: -15%"},
      {"molecule": "COc1cc(NC(=O)c2ccc(Cl)cc2Cl)ccc1NC(=O)c1cccs1", "growth rescue (activation)": "inactive: 20.6%"},
      {"molecule": "N/C(=N\\c1nc2ccccc2o1)NC(=O)c1ccccc1", "growth rescue (activation)": "inactive: 41.7%"},
      {"molecule": "Cc1nn(CC(C)C)c(Cl)c1C(=O)N(c1ccc(Cl)cc1F)S(C)(=O)=O", "growth rescue (activation)": "inactive: 2.98%"},
      {"molecule": "CN(c1ccccc1)S(=O)(=O)c1ccc(Cl)c(C(=O)OCC(N)=O)c1", "growth rescue (activation)": "inactive: 4.72%"},
      {"molecule": "COc1ccc(C(=O)Nc2cccc(C(=O)N3CCCCC3)c2)cc1", "growth rescue (activation)": "inactive: 17.5%"},
      {"molecule": "O=C(CCn1c(=O)oc2ccccc21)NCCCN1CCOCC1", "growth rescue (activation)": "inactive: 6.36%"},
      {"molecule": "CCCS(=O)(=O)c1nc(S(=O)(=O)c2ccc(C)cc2)c(NCc2ccccc2)s1", "growth rescue (activation)": "inactive: -9.89%"},
      {"molecule": "O=C(O)CSc1ncccn1", "growth rescue (activation)": "inactive: -12.8%"},
      {"molecule": "CC(C)c1ccc(N(CC(=O)N2CCOCC2)S(C)(=O)=O)cc1", "growth rescue (activation)": "inactive: -9.56%"},
      {"molecule": "COCCN1C(=O)C(=O)/C(=C(/O)c2ccc(S(=O)(=O)N3CCOCC3)cc2)C1c1ccc(O)cc1", "note": "(configuration not stated)", "growth rescue (activation)": "inactive: 17.5%"},
      {"molecule": "O=S1(=O)N=C(N/N=C/C=C/c2ccccc2)c2ccccc21", "growth rescue (activation)": "inactive: 23.1%"},
      {"molecule": "Cn1c(COc2ccccc2)nnc1SCC(=O)Nc1nnc(C2CC2)s1", "growth rescue (activation)": "inactive: 2.62%"},
      {"molecule": "O=[N+]([O-])c1ccc(N2CCN(c3cccc(Cl)c3)CC2)cn1", "growth rescue (activation)": "inactive: 19%"},
      {"molecule": "CCc1ccc(NC(=O)C(=O)NNC(=O)c2ccc(OC)cc2)cc1", "growth rescue (activation)": "inactive: 15.9%"},
      {"molecule": "CCc1cccc(NC(=O)CCCn2c(=O)[nH]c3ccsc3c2=O)c1", "growth rescue (activation)": "inactive: 11.9%"},
      {"molecule": "O=C(COC(=O)c1ccncc1)Nc1ccc2c(c1)OCO2", "growth rescue (activation)": "inactive: 5.9%"},
      {"molecule": "COc1ccc(CC(N)c2csc(Nc3ncccn3)n2)cc1", "note": "(configuration not stated)", "growth rescue (activation)": "inactive: 2.47%"},
      {"molecule": "COc1cccc(C2Nc3cccc4cccc(c34)N2)c1", "growth rescue (activation)": "inactive: 12%"},
      {"molecule": "COc1cc(OC)c2nc(C)c3c(c2c1)N(c1ccc(O)cc1)CC3", "growth rescue (activation)": "inactive: 18%"},
      {"molecule": "Cc1nc(NCc2cccnc2)c2c3c(sc2n1)CCCC3", "growth rescue (activation)": "inactive: -3.4%"},
      {"molecule": "CCOc1ccc(N=Cc2c(C)[nH]n(-c3nc4ccccc4[nH]3)c2=O)cc1", "growth rescue (activation)": "inactive: -55%"},
      {"molecule": "CN(C)S(=O)(=O)c1ccc(C(=O)/C=C/c2cccnc2)cc1", "growth rescue (activation)": "inactive: 4.97%"},
      {"molecule": "COc1ccc(C(=O)NCCNC(=O)c2cnccn2)cc1OC", "growth rescue (activation)": "inactive: 9.95%"},
      {"molecule": "O=C(CN1N=C(c2ccc(Cl)cc2)CCC1=O)NCCN1CCc2ccccc2C1", "growth rescue (activation)": "inactive: 18%"},
      {"molecule": "O=C(c1ccccc1)N1N=C(c2ccccc2)CC1c1ccccc1[N+](=O)[O-]", "note": "(configuration not stated)", "growth rescue (activation)": "inactive: 2.53%"},
      {"molecule": "CCOC(=O)c1sc(NC(=S)NC(=O)c2ccccc2)c(C(=O)OCC)c1C", "growth rescue (activation)": "inactive: 1%"},
      {"molecule": "CN1CCN(C(=O)/C(=C\\c2cccs2)NC(=O)c2ccccc2)CC1", "growth rescue (activation)": "inactive: -13.6%"},
      {"molecule": "COC(=O)C1CCN(C(=O)COC(=O)[C@@H]2CC(O)CN2S(=O)(=O)c2ccc3c(c2)OCCO3)CC1", "note": "(some centres not stated)", "growth rescue (activation)": "inactive: 31.1%"},
      {"molecule": "CCc1nn2c(=O)c(S(=O)(=O)Nc3cccc(F)c3)c(C)nc2s1", "growth rescue (activation)": "inactive: 12.7%"},
      {"molecule": "Cc1ccc(C)c(Cn2cnc3c(oc4ccccc43)c2=O)c1", "growth rescue (activation)": "inactive: 8.83%"},
      {"molecule": "COc1cc(CO)ccc1OCC(=O)Nc1cccc2ccccc12", "growth rescue (activation)": "inactive: 18.9%"},
      {"molecule": "COc1ccc(CNC(=S)NNC(=O)c2cc3ccccc3o2)cc1", "growth rescue (activation)": "inactive: 11.6%"},
      {"molecule": "CCOc1ccc(Cl)cc1S(=O)(=O)N1CCC(C(=O)NCc2ccncc2)CC1", "growth rescue (activation)": "inactive: 10.6%"},
      {"molecule": "CN(C)S(=O)(=O)c1cccc(COc2ncnc3c(Cl)cc(Cl)cc23)c1", "growth rescue (activation)": "inactive: -7.84%"},
      {"molecule": "Cc1nnc(Nc2ccc(Cl)c(C(F)(F)F)c2)[nH]c1=O", "growth rescue (activation)": "inactive: -22.2%"},
      {"molecule": "O=C(Nc1ccc(Cl)cc1)Nc1ccc(N2CCCC2)c(S(=O)(=O)Nc2ccccc2Cl)c1", "growth rescue (activation)": "inactive: 8.63%"},
      {"molecule": "COc1cc(C(=O)Nc2cc(C)ccc2C)ccc1OCc1c(C)noc1C", "growth rescue (activation)": "inactive: -11.7%"}
    ]}
  ]
}
